Screen size: about 370,000 compounds; about 150 (0.041%) were called active. The inconclusive results got no clear call from the source; some entries with a clear call stand among them for comparison. The call rests on the fitted dose curve; in most records, active means well fitted inhibition curve with a large enough effect; inconclusive means small, poorly fitted or top-dose-only effect; inactive means flat fitted curve, though single readings scatter. Potencies of inconclusive entries are left out as doubtful fits.
target: Beta-lactamase (Escherichia coli (strain K12)) (UniProt P00811); test: qHTS Inhibitors of AmpC Beta-Lactamase (assay with detergent); settings: AmpC hydrolysis of nitrocefin, absorbance 480 nm, 0.01% Triton; activity change, negative = inhibition: at 114 µM (top of the series); further: nearly all actives have a fitted effect of over 25% in size;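 on activity change, negative = inhibition: 0% = no-compound wells and -100% = no-enzyme wells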
Method in brief: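 AmpC (5.3 nM in the dispensed reagent) in 20 mM phosphate pH 7.0 with 0.01% (detergent screen) or 0.0001% Triton X-100 was preincubated with compounds for 15 min at room temperature. Nitrocefin was then added from an 800 uM solution, and hydrolysis was followed at 480 nm.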
Potency means the concentration at half of the fitted maximal effect; tags describe the fitted curve by direction and shape.

Sequence of UniProt P00811 (P00811 whole entry, looked up): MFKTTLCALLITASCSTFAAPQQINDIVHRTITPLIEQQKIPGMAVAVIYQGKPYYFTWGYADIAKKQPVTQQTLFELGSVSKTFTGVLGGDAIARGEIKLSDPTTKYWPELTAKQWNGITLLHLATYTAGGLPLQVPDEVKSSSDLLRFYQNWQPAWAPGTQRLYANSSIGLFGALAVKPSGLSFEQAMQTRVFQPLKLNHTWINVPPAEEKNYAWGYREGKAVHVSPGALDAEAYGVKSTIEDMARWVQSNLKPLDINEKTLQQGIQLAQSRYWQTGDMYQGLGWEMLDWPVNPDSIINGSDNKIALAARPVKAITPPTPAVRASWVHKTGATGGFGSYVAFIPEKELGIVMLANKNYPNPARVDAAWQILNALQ

| SMILES | activity change, negative = inhibition | Potency |
| --- | --- | --- |
| O=C(Cc1ccccc1)N(Cc1cccnc1)c1nc2ccc(F)cc2s1 | inactive: 5.73% | – |
| Cc1cc(C(=O)N[C@H](c2ccccc2)[C@@]2(C)C[C@@H]2[C@@H](C)C(=O)Nc2ccc3ccccc3c2)n(C)n1 | – | inconclusive [inhibitor, partial curve] |
| Cc1ccc(S(=O)(=O)N(CC(=O)O)Cc2ccco2)cc1 | inactive: -3.26% | – |
| CC(=O)Nc1n[nH]c(S(=O)(=O)Cc2ccc(Cl)cc2Cl)n1 | – | inconclusive [inhibitor, full curve, poor fit] |
| CCCc1cc(C(=O)NC2CCCC2)no1 | – | inconclusive [inhibitor, partial curve, poor fit] |
| COc1ccc(S(=O)(=O)N2CCN(Cc3ccc4c(c3)OCO4)CC2)cc1OC | inactive: 12.5% | – |
| O=C(NCC(c1ccco1)N1CCc2ccccc2C1)c1ccc(Br)cc1 (stereo unspecified) | – | inconclusive [inhibitor, full curve] |
| Cc1nn(-c2ccccc2)c(C)c1/C=N/Nc1nc2ccccc2[nH]1 | – | inconclusive [inhibitor, partial curve, poor fit] |
| CC(C)NS(=O)(=O)c1ccc(CCC(=O)N2CCCCC2)cc1 | – | inconclusive [inhibitor, single point] |
| CCCSCCCNC(=O)c1ccc2c(c1)nc1n2CCCCC1 | inactive: -1.5% | – |
| COc1ccc(CCNC(=O)c2ccc3c(c2)NC(=O)C(C(C)C)N3)cc1OC (stereo unspecified) | – | inconclusive [inhibitor, single point] |
| COc1cccc(/C=N/NC(=O)c2[nH]c(C)c(C(=O)N/N=C/c3cccc(OC)c3O)c2C)c1O | – | inconclusive [inhibitor, full curve, poor fit] |
| COc1ccc(OCCCC(=O)Nc2cccc(C(C)=O)c2)cc1 | – | inconclusive [inhibitor, full curve, poor fit] |
| Cc1cc(NC(=O)CSCc2nc(-c3cccc(F)c3)oc2C)no1 | – | inconclusive [inhibitor, full curve, poor fit] |
| CCCN(CCC)C(=O)Cc1coc2ccc3ccccc3c12 | inactive: 3.29% | – |
| Cc1csc(SCC(=O)Nc2nnc(C)s2)n1 | inactive: 6.43% | – |
| CCOc1cc(/C=N/NC(=O)CN2CCCCC2)ccc1OCc1ccccc1 | – | inconclusive [inhibitor, full curve, poor fit] |
| COc1ccc(OC)c(S(=O)(=O)n2nnc3cc(Cl)ccc32)c1 | inactive: -7.88% | – |
| CC(C)c1ccccc1NC(=O)CN1C(=O)c2cccc3cccc1c23 | inactive: 18.5% | – |
| N#Cc1ccccc1OCC(=O)NC(=O)NCc1ccccc1 | – | inconclusive [inhibitor, full curve, poor fit] |
| COc1ccc(C2CC(c3cccc(OC)c3OC)n3nnnc3N2)cc1 (stereo unspecified) | – | inconclusive [inhibitor, full curve] |

| SMILES | activity change, negative = inhibition | Potency |
| --- | --- | --- |
| CC(C)OC(=O)CC1C(=O)NCCN1C(=S)NC(=O)c1ccc(F)cc1 (stereo unspecified) | inactive: 5.1% | – |
| O=C(CCN1CCOCC1)NNC(=O)/C(=C/c1ccccc1)NC(=O)c1ccccc1 | – | inconclusive [inhibitor, full curve, poor fit] |
| CN1CCN(Cc2c(C#N)c3ccccc3n2C)CC1 | – | inconclusive [inhibitor, full curve, poor fit] |
| CC(C)C(c1nnnn1Cc1ccc(F)cc1)N1CCN(C2CCCCC2)CC1 (stereo unspecified) | – | inconclusive [inhibitor, full curve, poor fit] |
| COc1cc(Cl)c(C)cc1NC(=O)CSc1ccccc1 | – | inconclusive [inhibitor, partial curve, poor fit] |
| CC(C)n1ncc2c(C(=O)NCC(=O)Nc3ccccc3Br)cc(C3CC3)nc21 | – | inconclusive [inhibitor, full curve] |
| CN(C)c1nc(N(C)C)nc(N2CC(CCl)OC2=N)n1 (stereo unspecified) | – | inconclusive [inhibitor, full curve, poor fit] |
| COc1ccc(-c2cc(C(=O)NCCN3CCOCC3)no2)cc1OC | – | inconclusive [inhibitor, full curve, poor fit] |
| CC1(C)NC(=O)N(CC(=O)N2CCCC(C(F)(F)F)C2)C1=O (stereo unspecified) | – | inconclusive [inhibitor, partial curve, poor fit] |
| Cc1cn(C(=O)c2cccc(Br)c2)c(C)n1 | – | inconclusive [inhibitor, full curve] |
| COc1ccc(C(=O)CC2OC(=O)c3c2ccc(OC)c3OC)cc1 (stereo unspecified) | – | inconclusive [inhibitor, full curve, poor fit] |
| COc1cccc(/C=N/N2CCN(C)CC2)c1 | – | inconclusive [inhibitor, partial curve, poor fit] |
| Cc1ccc(CNS(=O)(=O)c2c(C)nc3scc(C)n3c2=O)cc1 | – | inconclusive [inhibitor, full curve, poor fit] |
| COc1ccccc1C(=O)N1CCN(c2nc3cc(C)c(C)cc3cc2C#N)CC1 | – | inconclusive [inhibitor, full curve] |
| CCC(=O)Nc1cccc(Oc2nc(C)cc(C)c2C#N)c1 | – | inconclusive [inhibitor, full curve, poor fit] |
| O=C(CCc1ccccc1)n1nc(-c2ccco2)nc1SCc1ccccc1 | – | inconclusive [inhibitor, full curve, poor fit] |
| Cc1ccc(C)c(NS(=O)(=O)c2ccc(NC(=O)c3ccco3)cc2)c1 | – | inconclusive [inhibitor, partial curve] |
| CCCCN(C(=O)c1sc2nc3n(c(=O)c2c1C)CCC3)c1c(N)n(CC(C)C)c(=O)[nH]c1=O | – | inconclusive [inhibitor, full curve] |
| COc1ccccc1N1CCN(/N=C/c2cccc(OC)c2OC)CC1 | – | inconclusive [inhibitor, single point] |
| COc1ccc(Cl)cc1Nc1nc(-c2sc(NC(=O)c3ccccc3)nc2C)cs1 | – | inconclusive [inhibitor, full curve, poor fit] |

From PubChem BioAssay AID485294 (National Center for Advancing Translational Sciences (NCATS), 2010)
